# Laboratory results reported in patent US20210238308A1 (Chugai, published 2021).
# T1: human TRIM21 PRYSPRY domain with N-terminal 6xHis tag (human)
# T1 construct: Expressed from pET28a in E. coli; also called hTRIM21
# T1 chain: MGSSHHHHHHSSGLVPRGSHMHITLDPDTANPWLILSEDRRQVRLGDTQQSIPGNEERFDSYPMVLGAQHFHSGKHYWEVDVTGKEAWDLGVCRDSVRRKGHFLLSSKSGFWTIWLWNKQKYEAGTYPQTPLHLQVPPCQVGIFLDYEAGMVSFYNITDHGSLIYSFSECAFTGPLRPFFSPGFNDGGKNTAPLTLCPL
# B1: 3D8VH-G1m/hT4VL-KT0.Avi I253M.Q438E (antibody, human IgG1, kappa)
# heavy: EVQLVESGGGLVQPGGSLRLSCAASGYTFTSYVMHWVRQAPGKGLEWVSAINPYNDGNYYADSVKGRFTISRDNSRKTLYLQMNSLRAEDTAVYYCARGAYKRGYAMDYWGQGTTVTVSSASTKGPSVFPLAPSSKSTSGGTAALGCLVKDYFPEPVTVSWNSGALTSGVHTFPAVLQSSGLYSLSSVVTVPSSSLGTQTYICNVNHKPSNTKVDKKV[human IgG1 Fc with I253M Q438E (EU numbers) omitted here]
# light: [about 200 residues omitted here]GGGGSGLNDIFEAQKIEWHE
# B2: 3D8VH-G1m/hT4VL-KT0.Avi N315M.M428F (antibody, human IgG1, kappa)
# heavy: EVQLVESGGGLVQPGGSLRLSCAASGYTFTSYVMHWVRQAPGKGLEWVSAINPYNDGNYYADSVKGRFTISRDNSRKTLYLQMNSLRAEDTAVYYCARGAYKRGYAMDYWGQGTTVTVSSASTKGPSVFPLAPSSKSTSGGTAALGCLVKDYFPEPVTVSWNSGALTSGVHTFPAVLQSSGLYSLSSVVTVPSSSLGTQTYICNVNHKPSNTKVDKKV[human IgG1 Fc with N315M M428F (EU numbers) omitted here]
# light: [about 200 residues omitted here]GGGGSGLNDIFEAQKIEWHE
# B3: 3D8VH-G1m/hT4VL-KT0.Avi I253Y.Q438E (antibody, human IgG1, kappa)
# heavy: EVQLVESGGGLVQPGGSLRLSCAASGYTFTSYVMHWVRQAPGKGLEWVSAINPYNDGNYYADSVKGRFTISRDNSRKTLYLQMNSLRAEDTAVYYCARGAYKRGYAMDYWGQGTTVTVSSASTKGPSVFPLAPSSKSTSGGTAALGCLVKDYFPEPVTVSWNSGALTSGVHTFPAVLQSSGLYSLSSVVTVPSSSLGTQTYICNVNHKPSNTKVDKKV[human IgG1 Fc with I253Y Q438E (EU numbers) omitted here]
# light: [about 200 residues omitted here]GGGGSGLNDIFEAQKIEWHE
# B4: 3D8VH-G1m/hT4VL-KT0.Avi I253M.T437D (antibody, human IgG1, kappa)
# heavy: EVQLVESGGGLVQPGGSLRLSCAASGYTFTSYVMHWVRQAPGKGLEWVSAINPYNDGNYYADSVKGRFTISRDNSRKTLYLQMNSLRAEDTAVYYCARGAYKRGYAMDYWGQGTTVTVSSASTKGPSVFPLAPSSKSTSGGTAALGCLVKDYFPEPVTVSWNSGALTSGVHTFPAVLQSSGLYSLSSVVTVPSSSLGTQTYICNVNHKPSNTKVDKKV[human IgG1 Fc with I253M T437D (EU numbers) omitted here]
# light: [about 200 residues omitted here]GGGGSGLNDIFEAQKIEWHE
# B5: 3D8VH-G1m/hT4VL-KT0.Avi N315Q.Y436T (antibody, human IgG1, kappa)
# heavy: EVQLVESGGGLVQPGGSLRLSCAASGYTFTSYVMHWVRQAPGKGLEWVSAINPYNDGNYYADSVKGRFTISRDNSRKTLYLQMNSLRAEDTAVYYCARGAYKRGYAMDYWGQGTTVTVSSASTKGPSVFPLAPSSKSTSGGTAALGCLVKDYFPEPVTVSWNSGALTSGVHTFPAVLQSSGLYSLSSVVTVPSSSLGTQTYICNVNHKPSNTKVDKKV[human IgG1 Fc with N315Q Y436T (EU numbers) omitted here]
# light: [about 200 residues omitted here]GGGGSGLNDIFEAQKIEWHE
# B6: 3D8VH-G1m/hT4VL-KT0.Avi I253Y.Y436T (antibody, human IgG1, kappa)
# heavy: EVQLVESGGGLVQPGGSLRLSCAASGYTFTSYVMHWVRQAPGKGLEWVSAINPYNDGNYYADSVKGRFTISRDNSRKTLYLQMNSLRAEDTAVYYCARGAYKRGYAMDYWGQGTTVTVSSASTKGPSVFPLAPSSKSTSGGTAALGCLVKDYFPEPVTVSWNSGALTSGVHTFPAVLQSSGLYSLSSVVTVPSSSLGTQTYICNVNHKPSNTKVDKKV[human IgG1 Fc with I253Y Y436T (EU numbers) omitted here]
# light: [about 200 residues omitted here]GGGGSGLNDIFEAQKIEWHE
# B7: 3D8VH-G1m/hT4VL-KT0.Avi I253Y.N315Q (antibody, human IgG1, kappa)
# heavy: EVQLVESGGGLVQPGGSLRLSCAASGYTFTSYVMHWVRQAPGKGLEWVSAINPYNDGNYYADSVKGRFTISRDNSRKTLYLQMNSLRAEDTAVYYCARGAYKRGYAMDYWGQGTTVTVSSASTKGPSVFPLAPSSKSTSGGTAALGCLVKDYFPEPVTVSWNSGALTSGVHTFPAVLQSSGLYSLSSVVTVPSSSLGTQTYICNVNHKPSNTKVDKKV[human IgG1 Fc with I253Y N315Q (EU numbers) omitted here]
# light: [about 200 residues omitted here]GGGGSGLNDIFEAQKIEWHE
# B8: 3D8VH-G1m/hT4VL-KT0.Avi N315M.T437D (antibody, human IgG1, kappa)
# heavy: EVQLVESGGGLVQPGGSLRLSCAASGYTFTSYVMHWVRQAPGKGLEWVSAINPYNDGNYYADSVKGRFTISRDNSRKTLYLQMNSLRAEDTAVYYCARGAYKRGYAMDYWGQGTTVTVSSASTKGPSVFPLAPSSKSTSGGTAALGCLVKDYFPEPVTVSWNSGALTSGVHTFPAVLQSSGLYSLSSVVTVPSSSLGTQTYICNVNHKPSNTKVDKKV[human IgG1 Fc with N315M T437D (EU numbers) omitted here]
# light: [about 200 residues omitted here]GGGGSGLNDIFEAQKIEWHE
# B9: 3D8VH-G1m/hT4VL-KT0.Avi I253Y.D312H (antibody, human IgG1, kappa)
# heavy: EVQLVESGGGLVQPGGSLRLSCAASGYTFTSYVMHWVRQAPGKGLEWVSAINPYNDGNYYADSVKGRFTISRDNSRKTLYLQMNSLRAEDTAVYYCARGAYKRGYAMDYWGQGTTVTVSSASTKGPSVFPLAPSSKSTSGGTAALGCLVKDYFPEPVTVSWNSGALTSGVHTFPAVLQSSGLYSLSSVVTVPSSSLGTQTYICNVNHKPSNTKVDKKV[human IgG1 Fc with I253Y D312H (EU numbers) omitted here]
# light: [about 200 residues omitted here]GGGGSGLNDIFEAQKIEWHE
# B10: 3D8VH-G1m/hT4VL-KT0.Avi I253Y.M428F (antibody, human IgG1, kappa)
# heavy: EVQLVESGGGLVQPGGSLRLSCAASGYTFTSYVMHWVRQAPGKGLEWVSAINPYNDGNYYADSVKGRFTISRDNSRKTLYLQMNSLRAEDTAVYYCARGAYKRGYAMDYWGQGTTVTVSSASTKGPSVFPLAPSSKSTSGGTAALGCLVKDYFPEPVTVSWNSGALTSGVHTFPAVLQSSGLYSLSSVVTVPSSSLGTQTYICNVNHKPSNTKVDKKV[human IgG1 Fc with I253Y M428F (EU numbers) omitted here]
# light: [about 200 residues omitted here]GGGGSGLNDIFEAQKIEWHE
# B11: 3D8VH-G1m/hT4VL-KT0.Avi L432P (antibody, human IgG1, kappa)
# heavy: EVQLVESGGGLVQPGGSLRLSCAASGYTFTSYVMHWVRQAPGKGLEWVSAINPYNDGNYYADSVKGRFTISRDNSRKTLYLQMNSLRAEDTAVYYCARGAYKRGYAMDYWGQGTTVTVSSASTKGPSVFPLAPSSKSTSGGTAALGCLVKDYFPEPVTVSWNSGALTSGVHTFPAVLQSSGLYSLSSVVTVPSSSLGTQTYICNVNHKPSNTKVDKKV[human IgG1 Fc with L432P (EU numbers) omitted here]
# light: [about 200 residues omitted here]GGGGSGLNDIFEAQKIEWHE
# B12: 3D8VH-G1m/hT4VL-KT0.Avi I253Y.L432P (antibody, human IgG1, kappa)
# heavy: EVQLVESGGGLVQPGGSLRLSCAASGYTFTSYVMHWVRQAPGKGLEWVSAINPYNDGNYYADSVKGRFTISRDNSRKTLYLQMNSLRAEDTAVYYCARGAYKRGYAMDYWGQGTTVTVSSASTKGPSVFPLAPSSKSTSGGTAALGCLVKDYFPEPVTVSWNSGALTSGVHTFPAVLQSSGLYSLSSVVTVPSSSLGTQTYICNVNHKPSNTKVDKKV[human IgG1 Fc with I253Y L432P (EU numbers) omitted here]
# light: [about 200 residues omitted here]GGGGSGLNDIFEAQKIEWHE
# B13: 3D8VH-G1m/hT4VL-KT0.Avi N315M.L432P (antibody, human IgG1, kappa)
# heavy: EVQLVESGGGLVQPGGSLRLSCAASGYTFTSYVMHWVRQAPGKGLEWVSAINPYNDGNYYADSVKGRFTISRDNSRKTLYLQMNSLRAEDTAVYYCARGAYKRGYAMDYWGQGTTVTVSSASTKGPSVFPLAPSSKSTSGGTAALGCLVKDYFPEPVTVSWNSGALTSGVHTFPAVLQSSGLYSLSSVVTVPSSSLGTQTYICNVNHKPSNTKVDKKV[human IgG1 Fc with N315M L432P (EU numbers) omitted here]
# light: [about 200 residues omitted here]GGGGSGLNDIFEAQKIEWHE
# Biological target: T1, human TRIM21 PRYSPRY domain with …
# Assay: SPR, Ab captured on Protein L, hTRIM21 12.5-200 nM
Kd,koff,kon,Binder
0.901 nM,0.00298 s⁻¹,3.31e+06 M⁻¹ s⁻¹,B1
3.8 nM,0.00629 s⁻¹,1.66e+06 M⁻¹ s⁻¹,B2
0.576 nM,0.00235 s⁻¹,4.08e+06 M⁻¹ s⁻¹,B3
1.18 nM,0.00343 s⁻¹,2.9e+06 M⁻¹ s⁻¹,B4
5.82 nM,0.00641 s⁻¹,1.1e+06 M⁻¹ s⁻¹,B5
1.84 nM,0.0025 s⁻¹,1.36e+06 M⁻¹ s⁻¹,B6
0.87 nM,0.00207 s⁻¹,2.38e+06 M⁻¹ s⁻¹,B7
2.48 nM,0.0072 s⁻¹,2.91e+06 M⁻¹ s⁻¹,B8
0.982 nM,0.00244 s⁻¹,2.48e+06 M⁻¹ s⁻¹,B9
0.834 nM,0.00156 s⁻¹,1.87e+06 M⁻¹ s⁻¹,B10
22 nM,0.0379 s⁻¹,1.72e+06 M⁻¹ s⁻¹,B11
1.74 nM,0.00299 s⁻¹,1.72e+06 M⁻¹ s⁻¹,B12
5.33 nM,0.0068 s⁻¹,1.27e+06 M⁻¹ s⁻¹,B13
